# According to PMC4336329 (PLoS ONE, 2015):
# Screen size: about 310,000 compounds; about 2,200 (0.71%) showed an effect of 50% or more. Effects have a minus sign here. The list shows a part of the results.
# Target: human ether-à-go-go-related gene (hERG) potassium channel (human, UniProt Q12809)
# Experiment: primary screen, population patch clamp on CHO cells stably expressing hERG
# Sequence of human ether-à-go-go-related gene (hERG) potassium channel (Q12809 whole entry, looked up): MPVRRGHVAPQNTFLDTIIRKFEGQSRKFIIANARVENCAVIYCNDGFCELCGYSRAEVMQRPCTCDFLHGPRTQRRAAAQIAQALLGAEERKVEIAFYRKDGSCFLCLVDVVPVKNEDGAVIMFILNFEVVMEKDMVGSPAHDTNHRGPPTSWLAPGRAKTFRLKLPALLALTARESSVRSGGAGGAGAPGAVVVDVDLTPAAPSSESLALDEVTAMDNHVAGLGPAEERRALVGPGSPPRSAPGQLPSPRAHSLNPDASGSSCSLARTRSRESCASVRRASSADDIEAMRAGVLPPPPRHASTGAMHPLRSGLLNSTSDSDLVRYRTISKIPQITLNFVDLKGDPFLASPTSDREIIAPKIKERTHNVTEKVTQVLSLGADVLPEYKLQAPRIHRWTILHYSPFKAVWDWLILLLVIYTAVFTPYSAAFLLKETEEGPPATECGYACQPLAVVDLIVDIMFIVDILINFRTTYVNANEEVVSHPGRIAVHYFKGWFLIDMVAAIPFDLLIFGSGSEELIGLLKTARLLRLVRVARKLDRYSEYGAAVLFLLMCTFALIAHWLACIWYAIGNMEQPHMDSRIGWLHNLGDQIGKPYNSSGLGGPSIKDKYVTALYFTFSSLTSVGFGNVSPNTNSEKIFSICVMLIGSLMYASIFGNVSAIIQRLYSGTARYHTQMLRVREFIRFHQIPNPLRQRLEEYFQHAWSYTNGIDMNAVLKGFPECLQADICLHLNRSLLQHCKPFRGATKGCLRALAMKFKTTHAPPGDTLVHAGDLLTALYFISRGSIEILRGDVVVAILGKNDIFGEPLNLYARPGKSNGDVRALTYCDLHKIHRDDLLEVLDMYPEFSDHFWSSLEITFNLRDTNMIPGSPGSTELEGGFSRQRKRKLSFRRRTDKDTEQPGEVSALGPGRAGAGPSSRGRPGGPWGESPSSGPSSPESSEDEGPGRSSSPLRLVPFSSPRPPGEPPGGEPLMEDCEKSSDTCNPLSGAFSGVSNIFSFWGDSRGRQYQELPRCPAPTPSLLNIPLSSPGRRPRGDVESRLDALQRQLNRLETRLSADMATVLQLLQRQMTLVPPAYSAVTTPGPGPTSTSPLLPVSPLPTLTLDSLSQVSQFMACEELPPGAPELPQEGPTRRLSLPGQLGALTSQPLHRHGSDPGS
row,Compound,"hERG current change (%, negative = inhibition) at 1uM [%]"
1,O=C(Nc1ccccc1N1CCOCC1)c1cccc(S(=O)(=O)N2CCOCC2)c1,-0.261
2,CCN1C[C@]2(CO)CC[C@H](OC)[C@@]34C5C[C@H]6[C@H](OC)C5[C@](O)(C[C@H]6OC)[C@@H](C(OC)C23)[C@@H]14 (some centres unmarked),5.45
3,Cc1nn(CC(=O)NCCc2ccco2)c(=O)c2nn(-c3ccccc3)c(C)c12,14.3
4,CCOc1cc(N2CCOCC2)c(OCC)cc1NC(=O)c1c(-c2ccccc2)noc1C,6.09
5,CCn1c(CC(=O)Nc2ccccc2)nnc1SCc1nc2ccccc2c(=O)[nH]1,-2.32
6,CC(Sc1c[nH]c2ccccc12)C(=O)O (centres unmarked),5.58
7,CCOc1cc(/C=C\c2nc(O)c([N+](=O)[O-])c(=O)[nH]2)ccc1OC(C)CC (centres unmarked),7.52
8,COc1ccc(CC(=O)Nc2nn(C)c3nc4c(C)cccc4cc23)cc1,3.6
9,O=C(Nc1ccc(F)cc1)Nc1csc2ccccc12,12.5
10,CCOc1ccc(OCC)c(NC(=O)CSc2nc3ccccc3c(=O)n2C)c1,9.9
11,COc1ccc(NC(=O)CN2CCN(CC(=O)Nc3ccc4c(c3)OCO4)CC2)cc1,-85.9
12,OC1(Cc2cc(-c3ccccc3)no2)CCN(CCCc2ccccc2)CC1,-55.5
13,COCCCNC(=O)C1CCN(c2ncccn2)CC1,6.35
14,CCCCOC(=O)Nc1cc(C(=O)OC)ccc1C(=O)OC,-3.25
15,CC(C)c1[nH]nc2c1C(Cc1ccccc1)C(C#N)=C(N)O2 (centres unmarked),9.6
16,CN(C)S(=O)(=O)c1ccc2c(c1)C(=NNC(N)=O)c1cc(S(=O)(=O)N(C)C)ccc1-2,12.2
17,Cc1nc(-c2ccc(NS(C)(=O)=O)cc2)cs1,1.45
18,CCNC(=O)COC(=O)C1CCN(S(=O)(=O)c2ccc3c(c2)OCCO3)CC1,11
19,NS(=O)(=O)c1cc([N+](=O)[O-])ccc1NCc1cccnc1,4.3
20,CSCCC(NC(=O)c1cccc(C)c1)C(=O)O (centres unmarked),21.2
21,O=C(Cc1cccs1)N(c1ccccc1)C1C=CS(=O)(=O)C1 (centres unmarked),13.2
22,Cc1ccccc1OCC(=O)N/N=C/c1ccc([N+](=O)[O-])o1,-0.362
23,Cc1cc(NC(=O)CCN2CCC(C)CC2)ccc1Br.Cl,-24.5

row,Compound,"hERG current change (%, negative = inhibition) at 1uM [%]"
1,Nc1nc(NCCO)nc(NCc2ccccc2)c1[N+](=O)[O-],12.1
2,COc1ccc(C(=O)N=C2SC3CS(=O)(=O)CC3N2c2ccc(C(C)=O)cc2)cc1 (centres unmarked),4.54
3,Br.CN=c1nc(-c2ccccc2)n(-c2ccccc2)s1,6.86
4,O=C1NC(C(=O)O)=CC(c2ccc([N+](=O)[O-])cc2)N1 (centres unmarked),10.2
5,CC(C(=O)c1c[nH]c2ccccc12)N1CCN(C(=O)c2ccco2)CC1 (centres unmarked),6.03
6,O=C(/C=C/c1ccco1)NC(=S)Nc1cc(C(F)(F)F)ccc1N1CCOCC1,12.3
7,COc1ccc(NC(=O)COC(=O)C2CCN(S(=O)(=O)c3ccccc3)CC2)cc1Cl,-4.43
8,CCCCc1c(O)cc(C)[nH]c1=O,15.1
9,Cc1ccc(S(=O)(=O)CC(=O)N(CCCN2CCOCC2)c2nc3c(F)cccc3s2)cc1.Cl,5.91
10,O=C(CCNC(=O)c1ccco1)Nc1ccccc1N1CCOCC1,13.5
11,CCOC(=O)c1ccc(-c2n[nH]c(=O)c3ccccc23)cc1,7.02
12,CSc1nc(-c2ccccc2)nc2c1COC(C)(C)C2,10.1
13,CC1(C)C/C(=N\O)c2cc3c(nc2C1)CCCC3,8.13
14,CCCCN(CCCC)CC(O)CN1C(=O)NC(C)(C)C1=O (centres unmarked),1.38
15,CCOC(=O)[C@@H]1[C@H]2COc3cc(OC)ccc3[C@@H]2N2C(=O)N(c3ccc(C)cc3)C(=O)[C@@]12C,3.26
16,COC(=O)CCSCC(=O)Nc1ccc(S(=O)(=O)N2CCOCC2)cc1OC,9.95
17,CC(=O)/C(C#N)=C1\NC(=O)C(Cc2ccccc2)S1 (centres unmarked),18.9
18,O=C(c1ccc(NS(=O)(=O)c2cccc([N+](=O)[O-])c2)cc1)N1CCCCCC1,-1.26
19,Cc1ccc(S(=O)(=O)N2CCN(C(=O)c3ccc(-n4cncn4)c([N+](=O)[O-])c3)CC2)cc1,-19.5
20,COc1ccccc1CNC(=O)c1sccc1C,-0.149
21,O=C1/C(=C/c2ccc(C(=O)O)cc2)CCC/C1=C\c1ccc(C(=O)O)cc1,1.5
22,O=C(Nc1ccc(Cl)cc1)N1CCc2ccccc2C1,6.72
23,CCN(CC)c1ccc2c(C)cc(=O)oc2c1,10.9

row,Compound,"hERG current change (%, negative = inhibition) at 1uM [%]"
1,O=C(COC(=O)c1ccccc1Br)NCCN1C(=O)CSC1=O,3.72
2,COc1ccc(CCNC(=O)CC(c2ccccc2)c2cc(C)ccc2O)cc1OC (centres unmarked),15.5
3,CCOC(=O)c1c(C)nc2ccccc2c1-c1ccccc1.Cl,-2.74
4,COc1ccc2oc(=O)c(-c3nc4ccccc4o3)cc2c1,8.38
5,Cl.Fc1ccccc1CCNCc1cccc(Cl)c1Cl,12.8
6,S=C(NCCc1ccccn1)Nc1ccccc1Cl,17
7,CN1Cc2sc(N)c(C#N)c2CC1(C)C.Cl,0.571
8,O=C(NCc1ccco1)/C(=C\c1cccs1)NC(=O)c1ccco1,-4.12
9,COc1ccccc1OCC(=O)NCCS(=O)(=O)N1CCN(c2ccc(F)cc2)CC1,-3.49
10,Cc1nc(C(=O)Nc2cc(Cl)ccc2Cl)nn1-c1cc(OC(C)C)c(Cl)cc1Cl,-0.146
11,CC(C)Cc1nnc(NC(=O)C2CCN(C(=O)c3ccc(Cl)cc3)CC2)s1,-4.92
12,COCc1cc(C)nc(N2CCc3ccccc32)c1C#N,7.44
13,O=C1N(Cc2cccnc2)C[C@@H]2C[C@@H](c3ccc4nonc4c3)N3CCC[C@@]123,-18.2
14,Cc1ccc(C(=O)Nc2sc3c(c2C(=O)O)CCCCC3)o1,1.25
15,NS(=O)(=O)c1ccc(NC(=S)N2CCN(S(=O)(=O)c3ccc(F)cc3)CC2)cc1,11.9
16,CCC(C)N1CCN(C(=O)c2cccs2)CC1.O=C(O)C(=O)O (centres unmarked),3.54
17,CCOC(=O)c1[nH]c2ccc(OC)cc2c1NC(=S)N1CCN(c2cccc(C)c2C)CC1,10.5
18,CCOc1ccc(OCCC(=O)NNC(=O)c2nn(C)c(=O)c3ccccc23)cc1,17.1
19,COCc1[nH]c(=S)[nH]c(=O)c1C,15.8
20,CCC(=O)Nc1nc2ccc(NC(=O)c3cc(OC)c(OC)c(OC)c3)cc2s1,5.48
21,O=C(Cn1cnc2ccccc2c1=O)c1ccc(OC(F)F)cc1,-5.57
22,CC1C(=O)C(C)C(c2ccc3c(c2)OCO3)NC1c1ccc2c(c1)OCO2 (centres unmarked),11.2
23,O=C(O)CC(Cn1cnnn1)c1ccccc1 (centres unmarked),19.9

row,Compound,"hERG current change (%, negative = inhibition) at 1uM [%]"
1,CC(Oc1ccc2c3c(c(=O)oc2c1)CCCC3)C(=O)NCC1CCC(C(=O)O)CC1 (centres unmarked),12
2,COc1cccc(NC(=O)CCN2C(=O)C3CC=CCC3C2=O)c1 (centres unmarked),-4.15
3,O=C(CN1C(=O)CCSc2ccccc21)N1CCC2(CC1)OCCO2,15.2
4,CCOc1cccc(C=Nc2cc(C)cc(C)c2O)c1O,1.07
5,Cc1ccc(-n2c(Cc3cccn3C)nnc2SCC(=O)NCc2ccco2)cc1,-3.14
6,CCOc1ccc(NS(=O)(=O)c2cc(C(=O)N3CCCC3)ccc2Cl)cc1,-0.724
7,NC(=O)c1ccc(-c2c(-c3ccccc3)sc3ccccc23)cc1,11.8
8,O=C(O)CC/C(=N\Nc1ccc([N+](=O)[O-])cc1S(=O)(=O)N1CCOCC1)c1cccs1,1.11
9,O=C(O)c1ccc(Cl)c(NC(=O)C2CCCN2S(=O)(=O)c2cccc3nsnc23)c1 (centres unmarked),6.02
10,COc1ccc(/C=N\NC(=O)COc2ccccc2Cl)cc1Cn1nc(C)cc1C,10
11,Cc1ccc(/C=C2/NC(=O)N(Cc3ccccc3F)C2=O)o1,1.57
12,COc1cccc(/C=N/NC(=O)CN2C(=O)NC3NC(=O)NC32)c1 (centres unmarked),4.59
13,CC1CCCN(S(=O)(=O)c2ccc3[nH]c4c(c3c2)CCCC4)C1 (centres unmarked),7.53
14,COc1ccc(NS(=O)(=O)c2ccc(SC)cc2)cc1,6.13
15,CC(=O)Nc1ncc(N=Nc2cccc(C(F)(F)F)c2)s1,12.1
16,CCc1nc2ccccc2n1CCC(=O)O.Cl,5.08
17,O=C(CN1C(=O)c2ccccc2C1=O)NCCOc1ccccc1,12.6
18,O=C(CNC(=O)c1ccc(Br)o1)NCc1cccc(Cl)c1,15.4
19,COc1ccc(CC(=O)NCC2(c3ccc(OC)c(OC)c3)CCCC2)cc1,-9.75
20,CCc1nnc(NC(=O)CSc2nnc(-c3ccccc3NC(=O)c3ccccc3)o2)s1,5.83
